This is one part of the list.

The subject of the assay is PfHDP1 homeodomain (GST-tagged). Kind of assay: gcPBM binding intensity (ln(normalized median fluorescence intensity)); higher = stronger DNA binding. The method in brief:
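Binding intensity values are the highest Masliner-normalised natural-log median intensity among replicate spots of either probe orientation. The binding step lasted 1 h in 1× PBS with 1% milk, 0.2 mg/ml BSA, 0.5% salmon testes DNA and 0.03% Triton X-100, using GST-tagged P. falciparum DNA-binding domains expressed in E. coli on an Agilent 4 × 180k array of primer-extended double-stranded 36-bp intergenic genomic probes plus negative controls. Alexa488 anti-GST antibody and a 488 nm scan detected bound protein.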
Regarding “TACACAAGCAGACACACACACATATAGATTTATATA [CACACA_site6715]”, the “gcPBM binding intensity (ln)” value worked out at 6.59. Turning to ACTGCGTTTTTACACGCGCACTGCAATGAACAATAT, the “gcPBM binding intensity (ln)” value came out at 6.97. Then “AAGATAATCACAAAATGTACAGGAAATATGACAACC [XGTACX_site3607]”, with 7.02; and “TATGTAACAAAAAAAAGTACACATATATATAGTGTA [XGTACX_site7772]”, with 6.41; and “TTTTCTAAATTAATAATACACACTTGCTAAAATCAT [CACACA_site3207]”, with 6.65. As to “AAGAAAAAGGAACGGAAAAACAAACAAGGGGCCCAA [TGCATGCA_negctrl_site4]”, the “gcPBM binding intensity (ln)” value came out at 6.16. “AATGGTATAAACAATACACACATAATATATATATTG [CACACA_site4997]”: the “gcPBM binding intensity (ln)” value worked out at 6.8. Then “TATTAGAACATATATGCATGCAATAGATATTCCAAT [TGCATGCA_site297]”, with 6.5; and “TATGTATAATTTCATTGTACTTTTGATATTATCATA [XGTACX_site280]”, with 5.94. In the case of “ATATCATTTTCTAGCACACACATTGTTATTACCTTG [CACACA_site902]”, the “gcPBM binding intensity (ln)” value came to 7.13. Consider “AGTCTGAATAAAATTACACACATATACAGATATATA [CACACA_site5054]”, for which the “gcPBM binding intensity (ln)” value is 6.33. Then “TTTTTTTAAATATACACACACATTTATACAGATATA [CACACA_site5811]”, with 6.76.

On to “TTTCTAAAAATAAGAACACACACATATAAGCATATA [CACACA_site8714]”, for which the “gcPBM binding intensity (ln)” value was 7.05.

“AAAGGAAAATGTGTAAAAAGAAATGCTAGGTATATA [GTGCAC_negctrl_site699]”: the “gcPBM binding intensity (ln)” value came to 6.9. In the case of “ATATATATATAATATAGTACGTATAATATATGAATC [XGTACX_site4385]” it was 8.24; in that of “TATAATGCTCTTCTTTGTACATATTATGATTATATT [XGTACX_site2332]”, 9.39. On to “AGTGGTGTTAAATGTTGTACGATTTTGTGTTATTCG [XGTACX_site178]”, for which the “gcPBM binding intensity (ln)” value was 6.75. Then TTTTTGTTATATAAAGTGCAGTGACAAGCAGTTTAA, with 6.84. Then “ATATAAAAAAATAAAACACACACATATATATTATAT [CACACA_site8909]”, with 6.91; and “ATTTAAGCATTATTTTGTACGAAAATAAAAAAATGA [XGTACX_site6958]”, with 6.37; and “TAATAGTATATAAAAAGTACATAATAAGATATGAAA [XGTACX_site1000]”, with 6.39. Then “AAAAAAAAAATTGAAAGTACAAATATGTATTATATA [XGTACX_site2455]”, with 6.34; and “TAAAATATGTCATGTGGTACATGAATAGCTTTTATT [XGTACX_site3809]”, with 6.03. On to “ATTATGTGCCAATACACACACACATATATATATATA [CACACA_site468]”, for which the “gcPBM binding intensity (ln)” value came out at 9.38.

With “AAAAAAAAAAAAAACACACAAATCATAAATAAATAT [CACACA_site6362]”, the “gcPBM binding intensity (ln)” value was 6.43. Then “TTTAAATATTACATATGTACTTATAAATATATATAT [XGTACX_site1284]”, with 7.5; and “AAGGAATAGGCATATACACACAGGTACAGATATATA [CACACA_site4402]”, with 6.56. In the case of “TCATATAAATACACGTGTACATATATATATTACAGT [XGTACX_site1954]” it was 6.82; in that of “AATATAAAAAATAGTTGTACTATATTTAAATATGAC [XGTACX_site2937]”, 6.39. Take AGTTTGCATATGGAAGTGCATTACCTTGAACATCAT: the “gcPBM binding intensity (ln)” value turned out to be 8.84. For the sequence “AAAAAATATATATGCACACACAAAAAAACAAATTAA [CACACA_site1278]”, the “gcPBM binding intensity (ln)” value is 9.51.

In the case of “ACTACGTGGATTAGTTCAAGGGAACACGTCCTATAC [CACACA_negctrl_site1427]”, the “gcPBM binding intensity (ln)” value was found to be 5.94. Then “CAACAAAAGTTATTTACACACAAAAGGCAAGGAAAT [CACACA_site7013]”, with 6.98; and “ACTAAACGAATAAATTGTACAAAGAAATATATTCAT [XGTACX_site6766]”, with 6.44. Regarding “ATATTTCATTTTTGTACACACAACGTTGGAGGGTTT [CACACA_site3043]”, the “gcPBM binding intensity (ln)” value came to 6.98. With “TAAAAAATTACATATTGTACAGGCAAAATTACACAT [XGTACX_site1152]”, the “gcPBM binding intensity (ln)” value was determined as 6.66. For the sequence “AAAGGAAATAAAAACGCACACAGAAATAATATCTAT [CACACA_site457]”, the “gcPBM binding intensity (ln)” value was 6.92. On to “TTTTTATCTAATCTAATATTATATTATACATATAAT [XGTACX_negctrl_site275]”, for which the “gcPBM binding intensity (ln)” value was determined as 6.32.

Regarding “TGTGTGTGCTTATTTTGTACATATTAGGTAAATATT [XGTACX_site6329]”, the “gcPBM binding intensity (ln)” value was 7.04.

Regarding “TTTATGGAATAATCACGTACACACAAGAAAAAAAAA [XGTACX_site985]”, the “gcPBM binding intensity (ln)” value was 6.56. For the sequence “AACTCATAAAATAATGGTACACAAAAAAAATAAATA [XGTACX_site7648]”, the “gcPBM binding intensity (ln)” value was found to be 6.8. For the sequence “TTAGATTTATAAGTGTGTACGTAAAATACTTAATAA [XGTACX_site8246]”, the “gcPBM binding intensity (ln)” value came out at 6.28.

Consider “TTAGGCAAGGCGGGGGGTACGTTTTTATATAATTAT [XGTACX_site8029]”, for which the “gcPBM binding intensity (ln)” value was 8.5. In the case of “TTTTTTTTTTTCTTTTGTACGTATAAAATTATATAA [XGTACX_site2453]” it was 6.18. For the sequence “CAAGGAACCAGACACACACACATAAATGTATTTATA [CACACA_site6491]”, the “gcPBM binding intensity (ln)” value amounted to 6.57. As to “ATAAATGACAAATTAACACACATATATTATATATAT [CACACA_site3899]”, the “gcPBM binding intensity (ln)” value amounted to 6.95. As to “GTTGGTAGGCGGTACGGTACACGTAAAGTTTTTCTT [XGTACX_site7706]”, the “gcPBM binding intensity (ln)” value came to 6.2. In the case of “ACCATATAAATAAACACACACACACGGATATAAATA [CACACA_site7157]” it was 6.98; in that of “TACATACATACATACACACATACATATGTATATATA [CACACA_site2480]”, 7.37. Consider “TAATGCCATAATACGTGTACTTAATATATTAGAACA [XGTACX_site5809]”, for which the “gcPBM binding intensity (ln)” value was 6.48. With “CTCAAATGTTATTGTAGTACCTAAAAAATATATTCT [XGTACX_site1970]”, the “gcPBM binding intensity (ln)” value worked out at 6.11. In the case of “ATATGTATTAAGTGTACACATATAATCTATCTTGTT [CACACA_site5329]” it was 6.91. As for “CCCACTAAAAAACACACACACACACCCATATATATA [CACACA_site6140]”, the “gcPBM binding intensity (ln)” value is 6.96. Take “TTTTTTTTATATAGTAGTACTAATTAGAATTTTTAT [XGTACX_site7476]”: the “gcPBM binding intensity (ln)” value turned out to be 6.23. In the case of “TATATGTTTTATAGTACACACATAAATGGACATACT [CACACA_site2191]” it was 6.48; in that of “TGAATTTAGATATATACACACAAAAGTATATACAAT [CACACA_site2804]”, 6.36. On to “TGTACATATATATATATAATAATAGTTATGTTTATT [CACACA_negctrl_site1474]”, for which the “gcPBM binding intensity (ln)” value amounted to 6.61. For “TTTTTTTATAGCTAAACACACATAAGAATATATGTT [CACACA_site1099]”, the “gcPBM binding intensity (ln)” value came out at 6.84. As for “ATTATTACACAACGTTGTACATTTCAATATTTTTAT [XGTACX_site5096]”, the “gcPBM binding intensity (ln)” value came out at 7.3. In the case of “AAAATAATATATAATTGTACTTTTTTTTTATATATA [XGTACX_site6093]” it was 6.1. Consider “TTTCTTTTTTTTTAATGTACTTTTTTTATAAAAGGT [XGTACX_site5688]”, for which the “gcPBM binding intensity (ln)” value came to 6.56. As for “TTTTTTCTTAAAATTTGTACATAGTGCAATTTTTTT [XGTACX_site5509]”, the “gcPBM binding intensity (ln)” value turned out to be 9.45. In the case of “TCCTCTTCAATATATATATATTATAAATAAATAAAT [CACACA_negctrl_site1756]” it was 6.62. In the case of “TATTTTTTATATTTATTTATTTAAAGGAGCTTTTCT [GTGCAC_negctrl_site293]” it was 6.15; in that of “TATAAGAATGACAAGTGTACATATCAAATATATTAG [XGTACX_site7113]”, 6.36; in that of “TATACTAAAAAATACACATGCACATACAATATATAT [TGCATGCA_site1016]”, 8.36. On to “ACATACTTTAATATATGTACATAAGAAAAAAAAAAA [XGTACX_site2991]”, for which the “gcPBM binding intensity (ln)” value is 6.53. In the case of “AATATAAATTAATTTACACACTAAAAAATATTTATA [CACACA_site7728]” it was 6.41; in that of “AAGTTGTATATTGATTGTACTTGTTTAGGGTTATAG [XGTACX_site2953]”, 6.57. As to “ATATATATAATAAACACACACATATACATATATGTA [CACACA_site3462]”, the “gcPBM binding intensity (ln)” value was 6.97. For the sequence “AGGTAAAATATACATTGTACATATAATTAATTTATT [XGTACX_site626]”, the “gcPBM binding intensity (ln)” value turned out to be 6.25. In the case of “TATATATATATAATGTGTACACAAATATATATTATA [XGTACX_site8786]” it was 8.93; in that of “AAATTTATATAATATTGTACATTAAAAATTATATAT [XGTACX_site8009]”, 6.21; in that of “AGTATATATACACAAGGGGAATACATATACAAAATT [TGCATGCA_negctrl_site244]”, 6.77. For “TGGGTAATACATAATACACACATGTATATGTCGCAT [CACACA_site1125]”, the “gcPBM binding intensity (ln)” value came to 6.51. Turning to “TATGTATAAATATATGCACACATATATATATTTATA [CACACA_site9150]”, the “gcPBM binding intensity (ln)” value is 9.35. Take “TTTTTAAAAAAGATAAGCGAAAGAATTAATTTTTAA [GTGCAC_negctrl_site197]”: the “gcPBM binding intensity (ln)” value was 6.41. For “TTTGAATTTTTTAACACACACATGTGTGGATATATA [CACACA_site6872]”, the “gcPBM binding intensity (ln)” value is 6.6. Then “TATTAACACTTTATAGAAACAAAAAAATAAGCAAAA [XGTACX_negctrl_site295]”, with 6.79. In the case of “CTCAATATATTTGATTTACACACTTACAATGTATAT [CACACA_site8982]” it was 6.78; in that of “TATTAAAGATACTCGGTATAAATAAATTTTAATGTG [XGTACX_negctrl_site239]”, 6.35.

Consider “AAGTGGCATATAAGTAAAAAATATATACAAGTATAT [GTGCAC_negctrl_site427]”, for which the “gcPBM binding intensity (ln)” value was 6.25. Consider “TATAAAAAATATAATTGTACATAAAGGTTAAAATGT [XGTACX_site6138]”, for which the “gcPBM binding intensity (ln)” value was found to be 6.9. In the case of “TTATTTCTACCTTTTTGTACACATTATTATGAAACC [XGTACX_site5325]” it was 7.46; in that of “ATGCTTATTATTTATTGTACTGAATAAATATATCTG [XGTACX_site4483]”, 6.46; in that of “ACAACATGCACACGCACACACAAAAAAAGCATGCAT [CACACA_site6185]”, 9.78. Turning to “ATAAATCATAAGGAGAGTACATAAATAAAATAATCA [XGTACX_site8825]”, the “gcPBM binding intensity (ln)” value worked out at 6.6. Then TACAATACCGTACAGGTGCAACTAGCCAAAAAAAAG, with 10.3. Then “TAAATTAATAAAAAGTGTACATAATATACATATATA [XGTACX_site8604]”, with 6.75.

The record behind these values is the supplement of paper PMC11417369.
